The source of these data is the supplement of paper PMC3334620.

The full ranking holds about 33,000 sequences; the median of “E-score (-0.5 to 0.5)” is about -0.011, and the highest 2% start at about 0.28. The list shows a part of the results.

The assay concerns the target T1, Gcr1 (UniProt P07261).
T1 sequence: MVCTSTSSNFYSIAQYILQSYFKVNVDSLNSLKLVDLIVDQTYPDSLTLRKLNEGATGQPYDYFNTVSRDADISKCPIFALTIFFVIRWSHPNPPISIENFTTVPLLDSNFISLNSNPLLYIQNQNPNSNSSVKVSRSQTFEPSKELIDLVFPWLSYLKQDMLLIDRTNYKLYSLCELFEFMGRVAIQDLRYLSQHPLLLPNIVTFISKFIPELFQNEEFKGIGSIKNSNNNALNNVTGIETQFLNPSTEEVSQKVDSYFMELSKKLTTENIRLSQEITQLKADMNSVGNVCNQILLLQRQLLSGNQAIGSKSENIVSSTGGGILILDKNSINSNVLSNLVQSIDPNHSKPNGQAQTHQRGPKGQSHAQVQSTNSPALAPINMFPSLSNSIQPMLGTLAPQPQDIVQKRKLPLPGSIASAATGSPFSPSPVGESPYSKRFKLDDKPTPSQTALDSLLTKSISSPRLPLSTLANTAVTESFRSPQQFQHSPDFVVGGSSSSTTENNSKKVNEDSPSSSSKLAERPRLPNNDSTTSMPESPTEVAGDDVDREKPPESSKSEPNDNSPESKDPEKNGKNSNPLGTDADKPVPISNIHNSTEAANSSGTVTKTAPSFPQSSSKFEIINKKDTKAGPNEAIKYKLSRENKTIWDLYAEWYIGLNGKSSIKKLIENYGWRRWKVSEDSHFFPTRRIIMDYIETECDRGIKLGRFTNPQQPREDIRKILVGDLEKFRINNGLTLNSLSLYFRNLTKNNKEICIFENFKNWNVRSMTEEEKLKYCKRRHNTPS
In words: PBM E-score (8-mer binding enrichment) (E-score (-0.5 to 0.5)); higher = stronger / more preferred TF binding; most listed sequences are background and not binding sites. As to conditions: protein concentration: 100 nM; construct: GST-full length. The method, boiled down: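 E-scores (a modified Wilcoxon-Mann-Whitney statistic) were assigned by the Universal PBM Analysis Suite to every ungapped eight-base word pooled with its reverse complement. The input came from universal all-10-mer Agilent arrays made double-stranded by primer extension and probed with GST-tagged yeast transcription factors at about 100-200 nM. Fluorescent anti-GST detected bound protein, and masliner normalised the scans.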
As to GCCATCCA, the “PBM E-score” value turned out to be 0.086. Take CGTGTGAC: the “PBM E-score” value is -0.186. The value for CCGGAGAA was -0.189.

Turning to ATCTAGTA, the “PBM E-score” value was found to be 0.0833. The value for GTCCGTAA was 0.215; that for GCTGTTCC was -0.0695. Consider ATGCTATG, for which the “PBM E-score” value is -0.0316. Consider AAGTTGGC, for which the “PBM E-score” value was -0.0431.

Take ATCAGGGA: the “PBM E-score” value is 0.0483.

In the case of ACATGTCT, the “PBM E-score” value is -0.133. The figure for ATAGCGAC is -0.00434.

On to AAAGTGAG, for which the “PBM E-score” value is 0.0964. The figure for CGCAGCGC is 0.15; for ATTCGTCC it is 0.115. The value for ATATACGA was 0.0754. The value for ACGAAACT was 0.0936; that for GCGCCCAC was 0.317. For AGAGGGCA, the “PBM E-score” value was -0.217. The figure for GTCTCTTA is -0.0385; for CGCATTCA it is 0.174. AATGCTAC: the “PBM E-score” value was -0.0602.

Take CTAGTGGA: the “PBM E-score” value amounted to 0.298. The figure for ATGACTGA is -0.0659; for GAACCGCA it is 0.125. The figure for AACCTAGA is 0.112; for AAGCAACG it is 0.00994. Take AGAGCCGC: the “PBM E-score” value amounted to 0.0326. The figure for ACGAAGCT is 0.399; for ATGTAGCC it is -0.00792; for ACATTGGA it is 0.147. Turning to ATTTAATG, the “PBM E-score” value was 0.0943. Take ACGGGTCG: the “PBM E-score” value came to 0.0762.

ATATCACC: the “PBM E-score” value was determined as 0.0338. TGAAGGAA: the “PBM E-score” value is -0.104. The figure for CGCGCCAA is 0.115; for CCGTTCTA it is 0.0976. On to CCGCAACA, for which the “PBM E-score” value was -0.0641. Regarding CGCATCAG, the “PBM E-score” value is 0.0645.

On to CATGGCAG, for which the “PBM E-score” value was determined as 0.0933. Take AGCGCTGA: the “PBM E-score” value is -0.171. The value for TATTGAAA was 0.0358; that for GCTGATCA was -0.0784. For ATTGCCCG, the “PBM E-score” value was -0.0949. The value for ATTCTTGA was 0.124.

As for ATGATCAA, the “PBM E-score” value was -0.104.

For the sequence GGTCCTAC, the “PBM E-score” value is -0.141. The value for CCGGTTAC was 0.185; that for ATCAACCA was 0.0911. The value for CCGAGCCG was -0.0743; that for GATTTCAC was -0.0263. The figure for GGGCGTCA is -0.0614; for GCCGCCAA it is 0.125; for CCCTCACC it is 0.0473. For CGCAAATA, the “PBM E-score” value was -0.0166. The value for AGTCGAAC was -0.0703; that for CAATCGCC was -0.0622; that for AGCGATCG was -0.292. The figure for AATTCAAT is 0.0549; for ATCAGCAC it is 0.185. The figure for GAACATGC is -0.179.

For the sequence ACGAAATC, the “PBM E-score” value stood at 0.0896.

As for CCGACGCA, the “PBM E-score” value is -0.165. The figure for AACCGGAA is 0.2. The value for AATGGGCT was -0.0285. The value for TGGGGTAA was -0.0434; that for GCGCGGCC was -0.0347. Turning to ACGCCCTG, the “PBM E-score” value is 0.189.

As to CATGCGCA, the “PBM E-score” value is -0.147. The figure for CAACACAA is 0.0702. For the sequence ATAACATG, the “PBM E-score” value was -0.151.

Turning to AGCGCTGC, the “PBM E-score” value is -0.216. The figure for ACCCAATA is 0.126. The figure for AATGTAAG is -0.101; for ATACATAT it is 0.0476. The value for ACGCAGGA was 0.00808. Turning to GATAATAC, the “PBM E-score” value is -0.0678.

Consider GCTTTAAA, for which the “PBM E-score” value was 0.171. Consider CCGCGTCG, for which the “PBM E-score” value was -0.16. The figure for AAGAGGGG is 0.0114. The value for AACAGGGA was 0.137. The value for CGAATGCA was -0.0162; that for AGGAGCAC was 0.163; that for CATGTGTA was -0.0616. In the case of AGGCCAAG, the “PBM E-score” value was -0.245.

As for AGATATTC, the “PBM E-score” value was -0.0178. Take AATAAACG: the “PBM E-score” value worked out at 0.132.
